The other results are listed elsewhere or left out. The full chains were built here from the parent and the listed change. Values near 0.05 are background.
B1: TEV protease; numbered along this chain (parent)
chain: MGESLFKGPRDYNPISSSICHLTNESDGHTTSLYGIGFGPFIITNKHLFRRNNGTLVVQSLHGVFKVKDTTTLQQHLVDGRDMIIIRMPKDFPPFPQKLKFREPQREERICLVTTNFQTKSMSSMVSDTSCTFPSGDGIFWKHWIQTKDGQCGSPLVSTRDGFIVGIHSASNFTNTNNYFTSVPKNFMELLTNQEAQQWVSGWRLNADSVLWGGHKVFMVKPEEPFQPVKEATQL

Variants of: B1
Test: raw area under fraction-flipped curve 0-4 h after induction (AUC4h, not background-subtracted), DNA-recorder readout of cleavage of the substrate (dimensionless); higher = more cleavage of the substrate by the protease variant
Conditions: temperature: 34 °C; time window: 0-4 h after rhamnose induction
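Also: Bxb1 expression induced with 0.2% (w/v) L-rhamnose at OD600 near 0.5, cultures sampled hourly, flipped fraction per protease–substrate barcode pair counted by paired-end Illumina sequencing.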

| Variant | area with substrate ENCYFQS | area with substrate ENDYFQS | area with substrate ENEYFQS | area with substrate ENFYFQS | area with substrate ENGYFQS | area with substrate ENHYFQS | area with substrate ENIYFQS | area with substrate ENKYFQS | area with substrate ENNYFQS | area with substrate ENPYFQS | area with substrate ENQYFQS | area with substrate ENTYFQS | area with substrate ENRYFQS | area with substrate ENSYFQS | area with substrate ENVYFQS | area with substrate ENYYFQS | area with substrate ENWYFQS | area with substrate ENMYFQS |
| --- | --- | --- | --- | --- | --- | --- | --- | --- | --- | --- | --- | --- | --- | --- | --- | --- | --- | --- |
| F95R | 0.0434 | 0.0549 | 0.0698 | 0.0416 | 0.0519 | 0.0497 | 0.0656 | 0.0452 | 0.0677 | 0.0533 | 0.0554 | 0.0556 |  |  |  |  |  |  |
| L99S | 0.0608 |  |  | 0.0591 | 0.0587 | 0.0504 |  |  |  | 0.0769 | 0.0498 | 0.0718 | 0.0602 | 0.0553 | 0.0633 |  |  |  |
| E103Y | 0.0626 |  |  |  |  |  |  |  |  |  | 0.0745 | 0.0641 |  | 0.061 |  |  |  |  |
| V113C | 0.0813 | 0.0695 | 0.0649 | 0.0302 | 0.0628 | 0.0626 |  |  |  | 0.0583 | 0.0573 | 0.0712 | 0.0655 | 0.0586 | 0.0494 | 0.0568 |  |  |
| V113N | 0.0523 | 0.0552 | 0.061 | 0.0519 | 0.0568 | 0.0491 |  |  | 0.0553 |  | 0.056 |  | 0.0515 | 0.0812 | 0.0978 |  | 0.163 |  |
| Q118H | 0.0554 | 0.0612 | 0.0361 |  |  |  |  |  |  | 0.0455 | 0.0616 | 0.054 |  |  |  |  | 0.0381 |  |
| S121Y | 0.0787 |  |  | 0.051 |  | 0.0592 |  |  | 0.0645 | 0.0554 |  | 0.0437 |  |  | 0.0823 |  |  |  |
| M125L | 0.0589 | 0.0695 | 0.0538 | 0.0633 | 0.0397 |  | 0.116 | 0.065 |  |  | 0.104 | 0.0616 | 0.0711 |  | 0.0739 | 0.0772 | 0.0475 |  |
| T132Y | 0.0546 | 0.0555 | 0.052 | 0.0432 | 0.008 |  | 0.0379 | 0.0445 | 0.0573 | 0.0778 | 0.0609 | 0.0432 | 0.0635 | 0.0555 | 0.0611 |  |  | 0.045 |
| G136P | 0.0637 | 0.0801 | 0.0613 |  | 0.0619 | 0.0716 |  |  | 0.0431 |  |  |  |  | 0.0525 | 0.0609 |  |  |  |
| G138Q | 0.0521 |  |  |  |  |  |  | 0.051 |  |  |  |  |  |  | 0.0622 | 0.0442 |  |  |
| I139Q | 0.0527 | 0.0557 | 0.0569 | 0.0679 | 0.0627 |  |  | 0.0038 | 0.066 | 0.0623 | 0.0766 |  | 0.0517 | 0.0974 | 0.0624 | 0.0456 |  |  |
| W144L | 0.0659 | 0.0757 | 0.069 |  |  | 0.066 |  |  | 0.0717 |  | 0.0617 | 0.0685 |  |  | 0.0674 |  | 0.0476 |  |
| Q146N | 0.08 |  | 0.0688 | 0.0746 | 0.0682 | 0.0769 |  | 0.0553 | 0.0714 | 0.0488 |  | 0.0682 | 0.0597 | 0.0629 | 0.0865 |  |  |  |
| Q151H | 0.0688 | 0.0583 | 0.0419 | 0.0575 | 0.0665 |  |  | 0.0604 | 0.0642 |  | 0.0654 | 0.0353 |  |  | 0.0633 | 0.0564 | 0.0626 |  |
| P155F | 0.0541 | 0.0619 | 0.0555 | 0.0578 | 0.0415 |  | 0.0535 |  |  |  | 0.0731 | 0.0564 | 0.0524 | 0.0513 |  |  | 0.0435 | 0.0504 |

| Variant | area with substrate ENCYFQS | area with substrate ENDYFQS | area with substrate ENEYFQS | area with substrate ENFYFQS | area with substrate ENGYFQS | area with substrate ENHYFQS | area with substrate ENIYFQS | area with substrate ENKYFQS | area with substrate ENNYFQS | area with substrate ENPYFQS | area with substrate ENQYFQS | area with substrate ENTYFQS | area with substrate ENRYFQS | area with substrate ENSYFQS | area with substrate ENVYFQS | area with substrate ENYYFQS | area with substrate ENWYFQS | area with substrate ENMYFQS |
| --- | --- | --- | --- | --- | --- | --- | --- | --- | --- | --- | --- | --- | --- | --- | --- | --- | --- | --- |
| S158H | 0.0765 | 0.0471 | 0.0557 | 0.0568 | 0.0462 | 0.0519 | 0.06 |  | 0.0577 | 0.0441 | 0.0643 | 0.0627 |  | 0.0595 | 0.0477 | 0.0466 | 0.05 |  |
| T176L | 0.0576 | 0.0601 | 0.0585 | 0.0568 |  | 0.0395 |  | 0.0567 | 0.0632 | 0.0613 | 0.0489 |  | 0.0298 | 0.0593 |  | 0.0529 | 0.0555 | 0.0454 |
| N178I | 0.071 |  | 0.0563 |  | 0.0623 |  |  |  | 0.051 |  | 0.0606 |  | 0.0586 | 0.0455 |  |  |  |  |
| V183I | 0.0555 | 0.0715 | 0.0633 | 0.0607 |  |  |  |  |  | 0.0592 | 0.0577 | 0.0636 | 0.0829 | 0.0632 |  |  | 0.0403 | 0.0704 |
| M188T | 0.0683 | 0.0713 | 0.0713 | 0.0744 | 0.0761 | 0.0596 |  |  |  | 0.0658 | 0.056 | 0.0704 |  |  | 0.0725 | 0.0534 | 0.0671 | 0.0788 |
| Q194S | 0.0854 | 0.045 | 0.0495 | 0.0701 |  | 0.0596 | 0.107 | 0.0518 | 0.0563 |  | 0.057 | 0.0654 |  | 0.038 | 0.0907 | 0.0764 |  |  |
| E195C | 0.0789 | 0.0546 |  |  |  |  |  | 0.048 |  | 0.055 | 0.0701 | 0.0433 | 0.057 | 0.0634 |  | 0.0506 | 0.0449 | 0.0859 |
| G202N | 0.067 | 0.0591 | 0.0685 |  |  | 0.0537 |  | 0.0651 | 0.0659 |  | 0.0621 |  | 0.0585 | 0.0672 | 0.0896 |  | 0.0512 | 0.0431 |
| G202S | 0.0592 | 0.0706 | 0.0618 |  | 0.0693 | 0.0734 |  | 0.0651 |  |  | 0.0629 | 0.0574 | 0.0534 | 0.052 | 0.0779 |  |  |  |
| L205F | 0.0569 | 0.0521 |  |  | 0.0778 |  |  |  |  |  |  |  |  | 0.0599 | 0.0059 | 0.0554 |  |  |
| V210K | 0.0694 |  | 0.0596 | 0.0571 | 0.066 | 0.0518 | 0.0836 | 0.0631 | 0.0788 |  | 0.0665 | 0.0611 | 0.0504 |  | 0.0509 | 0.0704 | 0.0139 | 0.0496 |
| G213S | 0.0792 | 0.0632 |  |  |  | 0.054 | 0.0879 |  |  |  | 0.0333 | 0.0671 | 0.0623 |  | 0.0596 | 0.054 |  |  |
| G214K | 0.0846 | 0.065 | 0.0501 | 0.0719 | 0.0641 | 0.0601 |  | 0.0709 | 0.0579 | 0.0742 | 0.0575 | 0.0783 |  | 0.0565 | 0.0683 | 0.0471 | 0.0453 | 0.0658 |
| G214M | 0.0584 |  |  |  | 0.028 | 0.0651 |  | 0.0603 | 0.0509 |  | 0.0522 | 0.0654 | 0.053 |  |  | 0.0587 | 0.0484 |  |
| K216L | 0.0731 |  | 0.0829 | 0.0505 | 0.061 |  | 0.0507 |  | 0.0646 |  | 0.0705 |  |  |  | 0.07 | 0.101 |  | 0.065 |

— the supplement of paper PMC12217912
